From ChEMBL document CHEMBL4888484, “Replenishing the malaria drug discovery pipeline: Screening and hit evaluation of the MMV Hit Generation Library 1 (HGL1) against asexual blood stage Plasmodium falciparum ,using a nano luciferase reporter read-out” (2022)
Hit rate of the full screen: of about 150,000 compounds, about 540 (0.36%) showed an effect of 50% or more. The list shows a part of the results.

system: Plasmodium falciparum; experiment: Primary screen in NF54 nanoGlo assay, in single point, at 2uM, 72h; a lower Z score goes with more inhibition; type: functional, Erythrocyte; details: timepoint 72 hour

Compound	% Inhibition	Z score
C[C@@H]1CN(Cc2cncn2C2CCCCC2)C[C@]1(C)O	-8%	1.27
C[C@H](O)c1nc2cc(NC(=O)c3cc(C#N)cn3C)ccc2[nH]1	12%	-1.62
CCC(=O)c1ccc(Cl)c(NC(=O)[C@H]2OCC[C@H]2C)c1	-6%	1.11
COc1ccc(S(=O)(=O)[C@H]2CS(=O)(=O)C[C@@H]2N2CCC3(CC2)OCCO3)cc1	12%	-1.54
CC(C)c1nc([C@H]2CCCN(C(=O)c3ccc(C#N)cn3)C2)no1	-4%	0.74
O=C(Nc1cccc2c1OC(F)(F)O2)N1CCc2nc[nH]c(=O)c2CC1	-5%	0.99
COc1cccc(CS(=O)(=O)Nc2cc(C(F)(F)F)ccn2)c1	-11%	1.4
CC(C)CC[C@](C)(O)CNS(=O)(=O)c1cncc(F)c1	-16%	2.04
N#Cc1c(NC(=O)c2cccc3ccccc23)sc2c1CCCC2 [GW620972X]	-21%	3.59
Cc1ncsc1CN1CCC(Nc2ncnc3c2CCC3)CC1	-12%	2.03
O=C(C[C@@]1(O)C(=O)N(Cc2ccccc2F)c2ccccc21)c1ccc2c(c1)OCO2	3%	-0.4
CCN(CCNc1nc(C)cc(C)n1)C1CC1	-11%	1.08
CC(C)c1ccc(OCC(=O)N(Cc2ccccc2)[C@H]2CCS(=O)(=O)C2)cc1	-12%	1.03
O=C(N[C@H](c1ccco1)C(F)(F)F)c1cn(CCN2CCCCC2)nn1	12%	-1.57
O[C@H]1C[C@H]2CC[C@@H](C1)N2c1nc(-c2ccncc2)nc2c1CNC2	-5%	0.43
Nc1nnc(C2(NC(=O)CCN3CCCCC3=O)CCCCC2)s1	8%	-0.66
COc1ccc(CNC(=O)c2ccc(Oc3ccccc3)cc2)cc1OC	-7%	1.23
Cc1cc2c(n1-c1cccc3ncccc13)CCCC2=O	-1%	0.16
CCc1nc(-c2ccc(-n3cc(C(=O)Nc4cc(C)cc(C)c4)c(C)n3)cc2)no1	0%	-0.09
O=C([C@@H]1CCCCC(=O)N1Cc1ccccc1)N1CCN(c2ccccn2)CC1	2%	-0.3
c1ccc(-c2ncn([C@H]3CCOC3)c2-c2c[nH]nc2C2CCCCC2)cc1	-7%	0.77

Compound	% Inhibition	Z score
COc1ccc(NC(=O)Cc2c(C)nc3nc(-c4cccnc4)nn3c2C)cc1	21%	-2.36
CC(=O)N1CCN(C(=O)c2ccc(C)nc2C2CCN(C(=O)c3ccco3)CC2)CC1	-3%	0.32
c1ccc(CCN(Cc2cccnc2)Cc2cnc(N3CCCC3)s2)cc1	1%	-0.21
O=C(Nc1nccs1)C1=NN(Cc2ccc(F)cc2)C(=O)CC1	-13%	1.14
Cc1ccccc1CC(=O)Nc1ccc2ncnc(N3CCCC3)c2c1	-11%	1.73
CC(C)N1CC(N2C(=O)[C@H]3CCCN3C2=O)CC1=O (some centres not stated)	2%	-0.29
COc1ccc(CN(C(=O)NC2CCOCC2)C2CCCC2)cc1OC	-1%	0.1
Cc1ccc(Cc2nc(N3CCCN(CCC(C)C)CC3)c3cnn(-c4ccccc4)c3n2)cc1	-5%	0.7
Cn1c(=O)c(N2CCOCC2)c2c3c(cccc31)C(=O)c1ccccc1-2	-11%	1.43
Cc1nc(N(C)CCn2ccnc2C)c2c(C)noc2n1	-4%	0.74
COc1ccc(Nc2nc(C(C(F)(F)F)(C(F)(F)F)C(F)(F)F)nc(C(C(F)(F)F)(C(F)(F)F)C(F)(F)F)n2)cc1	36%	-5.2
CC1CCN(C(=O)Cn2c(=O)n(C)c(=O)c3sccc32)CC1	22%	-2.51
Cc1nccc(C(=O)Nc2ncccc2O)n1	-12%	0.99
Cc1nc([C@@H]2CCCCN2C)n(-c2ccc(Cl)cc2Cl)n1	-13%	1.41
CCn1ccc(CN(C)Cc2c(C)noc2C)n1	-7%	0.92
COc1ccc([C@@H](O)Cn2cnc(C(=O)Nc3ccc4c(c3)OCO4)n2)cc1	-17%	1.98
COCCCNC(=O)c1ccc2c(c1)[C@@H](O)CCCCCN2C	-6%	0.71
COCC1(O)CN(Cc2ccccc2-c2ccnn2C)C1	-2%	0.17
CCC(CNC(=O)N1CCCC(CO)C1)Oc1ccccc1C (configuration not stated)	3%	-0.57
Cc1noc2ncc(C(=O)N[C@@H](C)c3cnn(-c4cccc(C(F)(F)F)c4)c3C)cc12	12%	-1.63
CC1CCCN(C(=O)NCC2CCC(C(N)=O)O2)C1C (configuration not stated)	-3%	0.32

Compound	% Inhibition	Z score
COCC(=O)N1CC[C@@H]2OCc3cccc(c3)Oc3ccc(cc3)CCC(=O)N(CCCO)CC(=O)N[C@H]2C1	-4%	0.57
COc1ccc([C@@H]2CC(c3ccccc3Cl)=NN2C(=O)CN(CCN2CCOCC2)C(=O)C2CCC2)cc1	-10%	1
O=C(c1ccc(Cl)c(S(=O)(=O)N2CCCCCC2)c1)N1CCn2c1nc1ccccc12	3%	-0.44
Cc1ncsc1CN1CCn2c(nn(C)c2=O)C1	-7%	1.27
O=C(Cn1cnc2c(nc3n2CCCCC3)c1=O)N1CCN(Cc2ccccc2)CC1	-9%	1.4
CCCC[C@H]1C(=O)N(C)CCN1C(=O)c1ccoc1COc1ccc(C)cc1	-19%	2.48
CCn1ccnc1CN(C)C(=O)NCc1nc(C2CCCCC2)no1	-4%	0.42
Cc1cccnc1[C@@H](NC(=O)c1ccc(C(C)C)[nH]c1=O)C1CC1	-2%	0.22
CC(C)[C@H](NC(=O)c1ccc(Cl)c(C(F)(F)F)c1)C(N)=O	2%	-0.25
CN1CC2(C[C@H]1c1nc(-c3ccccc3)no1)CN(C(=O)c1cccn1C)C2	9%	-1
Cc1ccc(S(=O)(=O)Nc2ccc(N3CCCCCCC3)c(C(=O)O)c2)c(C)c1	-5%	0.48
COCc1nc([C@H]2CCOC2)cc(N2CCn3nc(C)cc3C2)n1	-9%	1.69
CC(=O)Nc1ccc2nc(N3CCC(C(=O)N4CCC(N5CCCCC5)CC4)CC3)cc(C)c2c1	10%	-1.6
Cc1nc(CC(=O)N2CC[C@@H]3OCc4cccc(c4)Oc4ccc(cc4)CCC(=O)N(CCCO)CC(=O)N[C@H]3C2)cs1	-4%	0.69
COc1ccc(-n2cccn2)c(CN2CCC3(CC2)C(=O)N(C)C(=O)N3C)c1	-14%	2.73
CCN1CCN(C(C)(C)CNc2cccc(C(N)=O)n2)CC1	6%	-0.92
CCOc1ccc(-c2nc([C@H]3CCOC3)no2)o1	10%	-1.27
Cc1ccc(-c2cncnc2)c2cccnc12	-2%	0.31
CC(C)CCC(=O)Nc1cc(C(F)(F)F)ccc1C1CCN(C(=O)CCC(C)C)CC1	-10%	1.13
CCN(CC)c1ccc(NS(=O)(=O)c2cc(-c3nc(C)c(C)s3)sc2C)c(C)c1	1%	-0.12
C=CCN(CC=C)S(=O)(=O)c1ccc(S(=O)(=O)Nc2ncnn2C)cc1	-3%	0.49

Compound	% Inhibition	Z score
CCN1C[C@@H](c2ccccc2)CC2(CCN(c3ncccc3C(N)=O)CC2)C1	-8%	1.76
Cc1ccc(C(=O)N(C)CC(=O)NC(C)C)c(C)c1	-6%	0.59
COc1ccc(C(=O)C[n+]2nc(CNc3ccc(Br)cc3)n3c2CCCCC3)cc1	78%	-12.51
COCc1csc(NC(=O)N2Cc3ccccc3OC[C@@H]2C)n1	-17%	2.13
Cc1nc(C)c(C(=O)c2oc3ccccc3c2N)o1	-30%	3.52
Cc1cccc(OCC(=O)N2[C@@H]3CC[C@H]2CC(NC(=O)c2ccc(F)cc2)C3)c1 (some centres not stated)	5%	-0.76
CCCc1cc(C(=O)NCCc2nc(C)c3c(n2)CCC3)[nH]n1	-19%	3.34
Cc1nsc(N2CCC([C@H](O)C(=O)NC3CC3)CC2)c1C#N	14%	-1.82
CCCc1cc(C(=O)N[C@H](C(=O)O)C(C)(C)C)[nH]n1	-17%	1.96
O=c1ccc(-c2ccc3ccccc3c2)c2n1C[C@H]1C[C@@H]2CN(S(=O)(=O)c2ccccc2)C1	-13%	2.35
Cc1ccc(-c2nc(-c3ccc4c(c3)ncn4CCC(=O)N3CCCC3)no2)cc1F	-24%	3.13
CCc1nsc(NCC2(Br)CC2)n1	1%	-0.17
Cc1ccc(Oc2ccc(C#N)cn2)cn1	-15%	1.83
COCC(=O)N(CC(=O)N1CCc2sccc2C1COc1ccccc1F)CC1CCCO1 (configuration not stated)	0%	0.04
O=S(=O)(Nc1ccc(Cl)c2cccnc12)c1c(F)cc(F)cc1Br	-8%	1.3
O=C(Nc1c(C(=O)Nc2ccc3c(c2)OCO3)oc2ccccc12)c1ccc2ccccc2c1	-4%	0.81
O=C1CN(C(=O)NCc2c(F)cccc2Cl)CCCN1	-6%	1.11
CCOC(=O)CN(Cc1cccn1Cc1cccc(C)c1)C1CCCCC1	3%	-0.32
